These results are taken from PubChem BioAssay AID248 (DTP/NCI, 2004).

Inconclusive results and toxic doses are left out. Certain results were filed several times, with different values. This list holds those alone. The source may hold further records. The records of an entry repeat one measurement across runs, samples, wells, individuals or studies. Marks in square brackets tell the records apart. Letters hold for one entry only.

For this test, the system named is L1210 leukemia ip in BDF1 mice, survival T/C. Description: NCI In Vivo Anticancer Drug Screen. Data for tumor model L1210 Leukemia (intraperitoneal) in B6D2F1 (BDF1) mice. The settings on record: endpoint: mean survival time, higher = longer survival.

Regarding `CCCCCC(C)(C)O`, the T/C (dose: 400.0 mg/kg/injection, schedule: Q01DX001 (ip), vehicle: saline) is 108 % of control and 151 % of control.

Turning to `COC1C(CO)OC(n2cnc3c(=S)nc(N)[nH]c32)C1O` (centres undefined), the T/C (dose: 100.0 mg/kg/injection, schedule: Q01DX005 (ip), vehicle: saline) was 117 % of control and 157 % of control.

Regarding `COc1cc2c(c(OC)c1OC)-c1cc(I)c(O)cc1[C@@H](NC(C)=O)CC2`, for the setting “dose: 400.0 mg/kg/injection, schedule: Q01DX001 (ip), vehicle: carboxymethylcellulose (CMC)”, the T/C is 119 % of control and 150 % of control.

In the case of `CC(C)=CCC1=C(O)c2ccccc2C(=O)C1=O`, the T/C (dose: 25.0 mg/kg/injection, schedule: Q01DX Z (ip), vehicle: water) is 94 % of control, 150 % of control, 151 % of control.

For `COC(=O)N1c2ccccc2C=CC1C#N` (centres undefined), the T/C (dose: 200.0 mg/kg/injection, schedule: Q04DX003 (ip), vehicle: saline with Tween-80) is 105 % of control and 155 % of control.

As for `O=NN(CCCl)C(=O)NC1CCC(C(=O)O)CC1` (centres undefined), for the setting “dose: 62.0 mg/kg/injection, schedule: Q01DX001 (ip), vehicle: saline with Tween-80”, the T/C is 182 % of control [sample A] and 107 % of control [sample B].

Take `CC(C)CCCC(C)C1CCC2C3CCC4CN(N=O)CCC4C3CCC12C` (centres undefined): for the setting “dose: 400.0 mg/kg/injection, schedule: Q01DX001 (sc), vehicle: steriod suspending solution”, the T/C was 98 % of control and 168 % of control.

For the molecule `O=C(Nc1ccc(C2=NCCN2)cc1)c1ccc(C(=O)Nc2ccc(C3=NCCN3)cc2)c(Cl)c1`, the T/C was 117 % of control and 152 % of control (dose: 4.0 mg/kg/injection, schedule: Q01DX Z (ip), vehicle: saline); 118 % of control, 121 % of control, 188 % of control (dose: 8.0 mg/kg/injection, schedule: Q01DX010 (ip), vehicle: other); 123 % of control and 158 % of control (dose: 24.0 mg/kg/injection, schedule: Q03DX Z (ip), vehicle: saline); 114 % of control, 157 % of control, 193 % of control (dose: 32.0 mg/kg/injection, schedule: Q01DX Z (ip), vehicle: saline).

Consider `O=C(NP(=O)(N1CC1)N1CC1)OCc1ccccc1`, for which, under “dose: 24.0 mg/kg/injection, schedule: Q01DX Z (ip), vehicle: saline”, the T/C was 122 % of control, 158 % of control, 168 % of control.

On to `CC[C@@]1(O)C(=O)OCc2c1cc1n(c2=O)Cc2cc3ccccc3nc2-1`, for which the T/C (dose: 2.0 mg/kg/injection, schedule: Q01DX Z (sc), vehicle: saline) was 96 % of control and 152 % of control.

Turning to `CS(=O)(=O)OCCC(=O)NCNC(=O)CCOS(C)(=O)=O`, the T/C (dose: 42.0 mg/kg/injection, schedule: Q01DX Z (ip), vehicle: carboxymethylcellulose (CMC)) was 109 % of control and 151 % of control.
